# The other results are listed elsewhere or left out.
# B1: Siglec-E (Mus musculus), Q91Y57 (protein)
# chain: MLLLLLLLLLWGIKGVEGQNPQEVFTLNVERKVVVQEGLCVLVPCNFSYLKKRLTDWTDSDPVHGFWYREGTDRRKDSIVATNNPIRKAVKETRNRFFLLGDPWRNDCSLNIREIRKKDAGLYFFRLERGKTKYNYMWDKMTLVVTALTNTPQILLPETLEAGHPSNLTCSVPWDCGWTAPPIFSWTGTSVSFLSTNTTGSSVLTITPQPQDHGTNLTCQVTLPGTNVSTRMTTRLNVSYAPKNLTVTIYQGADSVSTILKNGSSLPISEGQSLRLICSTDSYPPANLSWSWDNLTLCPSKLSKPGLLELFPVHLKHGGVYTCQAQHALGSQHISLSLSPQSSATLSEMMMGTFVGSGVTALLFLSVCILLLAVRSYRRKPARPAVVAPHPDALKVSVSQNPLVESQADDSSEPLPSILEAAPSSTEEEIHYATLSFHEMKPMNLWGQQDTTTEYSEIKFPQRTAWP
# Experiments:
# Experiment in all cases: glycan array binding signal (z-score within array); higher = stronger binding
# Details in all cases: glycan notation: IUPAC condensed, linker removed
# [1] = target: Gal(b1-4)GalNAc(b1-3)[Fuc(a1-2)]Gal(b1-4)GlcNAc
# Method in brief: (§1)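 Arrays were curated from the Consortium for Functional Glycomics database, 3228 in total, and kept only where the protein sequence was available. Binding is expressed as a within-array Z-score. This score was averaged across arrays of the same protein sequence at different concentrations or buffers and across linkers, and negative values can be read as non-binding.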
# Gal(b1-4)Glc = target: Gal(b1-4)Glc
# Method in brief: as §1
# Gal(b1-4)Glc6S = target: Gal(b1-4)Glc6S
# Method in brief: as §1
# Gal(b1-4)GlcNAc = target: Gal(b1-4)GlcNAc
# Method in brief: as §1
# [2] = target: Gal(b1-4)GlcNAc(a1-6)Gal(b1-4)GlcNAc
# Method in brief: as §1
# Gal(b1-4)GlcNAc(b1-2)Man = target: Gal(b1-4)GlcNAc(b1-2)Man
# Method in brief: as §1
# [3] = target: Gal(b1-4)GlcNAc(b1-2)Man(a1-3)Man(b1-4)GlcNAc(b1-4)GlcNAc
# Method in brief: as §1
# [4] = target: Gal(b1-4)GlcNAc(b1-2)Man(a1-3)[Gal(b1-4)GlcNAc(b1-2)Man(a1-6)]Man(b1-4)GlcNAc(b1-4)GlcNAc
# Method in brief: as §1
# [5] = target: Gal(b1-4)GlcNAc(b1-2)Man(a1-3)[Gal(b1-4)GlcNAc(b1-2)Man(a1-6)]Man(b1-4)GlcNAc(b1-4)[Fuc(a1-6)]GlcNAc
# Method in brief: as §1
# [6] = target: Gal(b1-4)GlcNAc(b1-2)Man(a1-3)[Gal(b1-4)GlcNAc(b1-2)Man(a1-6)][Gal(b1-4)GlcNAc(b1-4)]Man(b1-4)GlcNAc(b1-4)[Fuc(a1-6)]GlcNAc
# Method in brief: as §1
# [7] = target: Gal(b1-4)GlcNAc(b1-2)Man(a1-3)[Gal(b1-4)GlcNAc(b1-2)Man(a1-6)][GlcNAc(b1-4)]Man(b1-4)GlcNAc(b1-4)[Fuc(a1-6)]GlcNAc
# Method in brief: as §1
# [8] = target: Gal(b1-4)GlcNAc(b1-2)Man(a1-3)[GlcNAc(b1-2)Man(a1-6)]Man(b1-4)GlcNAc(b1-4)GlcNAc
# Method in brief: as §1
# [9] = target: Gal(b1-4)GlcNAc(b1-2)Man(a1-3)[GlcNAc(b1-4)][Gal(b1-4)GlcNAc(b1-2)Man(a1-6)]Man(b1-4)GlcNAc(b1-4)GlcNAc
# Method in brief: as §1
# [10] = target: Gal(b1-4)GlcNAc(b1-2)Man(a1-3)[Man(a1-6)]Man(b1-4)GlcNAc(b1-4)GlcNAc
# Method in brief: as §1
# [11] = target: Gal(b1-4)GlcNAc(b1-2)Man(a1-6)Man(b1-4)GlcNAc(b1-4)GlcNAc
# Method in brief: as §1
# [12] = target: Gal(b1-4)GlcNAc(b1-2)Man(a1-6)[GlcNAc(b1-2)Man(a1-3)]Man(b1-4)GlcNAc(b1-4)GlcNAc
# Method in brief: as §1
# [13] = target: Gal(b1-4)GlcNAc(b1-2)Man(a1-6)[Man(a1-3)]Man(b1-4)GlcNAc(b1-4)GlcNAc
# Method in brief: as §1
# [14] = target: Gal(b1-4)GlcNAc(b1-2)[Gal(b1-4)GlcNAc(b1-4)]Man(a1-3)[Gal(b1-4)GlcNAc(b1-2)Man(a1-6)]Man(b1-4)GlcNAc(b1-4)GlcNAc
# Method in brief: as §1
# [15] = target: Gal(b1-4)GlcNAc(b1-2)[Gal(b1-4)GlcNAc(b1-4)]Man(a1-3)[Gal(b1-4)GlcNAc(b1-2)[Gal(b1-4)GlcNAc(b1-6)]Man(a1-6)]Man(b1-4)GlcNAc(b1-4)GlcNAc
# Method in brief: as §1
# [16] = target: Gal(b1-4)GlcNAc(b1-2)[Gal(b1-4)GlcNAc(b1-4)]Man(a1-3)[GlcNAc(b1-4)][Gal(b1-4)GlcNAc(b1-2)Man(a1-6)]Man(b1-4)GlcNAc(b1-4)GlcNAc
# Method in brief: as §1
# [17] = target: Gal(b1-4)GlcNAc(b1-2)[Gal(b1-4)GlcNAc(b1-4)]Man(a1-3)[GlcNAc(b1-4)][Gal(b1-4)GlcNAc(b1-2)[Gal(b1-4)GlcNAc(b1-6)]Man(a1-6)]Man(b1-4)GlcNAc(b1-4)GlcNAc
# Method in brief: as §1
# [18] = target: Gal(b1-4)GlcNAc(b1-2)[Gal(b1-4)GlcNAc(b1-6)]Man(a1-6)[Gal(b1-4)GlcNAc(b1-2)Man(a1-3)]Man(b1-4)GlcNAc(b1-4)GlcNAc
# Method in brief: as §1
binder,measurement,setting,value
B1,glycan array binding signal (z-score),[1],-0.625
same,glycan array binding signal (z-score),Gal(b1-4)Glc,-0.324
same,glycan array binding signal (z-score),Gal(b1-4)Glc6S,-0.266
same,glycan array binding signal (z-score),Gal(b1-4)GlcNAc,-0.433
same,glycan array binding signal (z-score),[2],-0.108
same,glycan array binding signal (z-score),Gal(b1-4)GlcNAc(b1-2)Man,2.29
same,glycan array binding signal (z-score),[3],-0.39
same,glycan array binding signal (z-score),[4],-0.384
same,glycan array binding signal (z-score),[5],1.18
same,glycan array binding signal (z-score),[6],-0.429
same,glycan array binding signal (z-score),[7],-0.6
same,glycan array binding signal (z-score),[8],-0.379
same,glycan array binding signal (z-score),[9],-0.388
same,glycan array binding signal (z-score),[10],0.024
same,glycan array binding signal (z-score),[11],-0.638
same,glycan array binding signal (z-score),[12],-0.414
same,glycan array binding signal (z-score),[13],-0.439
same,glycan array binding signal (z-score),[14],-0.496
same,glycan array binding signal (z-score),[15],-0.667
same,glycan array binding signal (z-score),[16],0.685
same,glycan array binding signal (z-score),[17],-0.189
same,glycan array binding signal (z-score),[18],0.105
